Data from US7271245B2, “Methods and compositions for inhibition of metastasis” (The Scripps Research Institute, priority 2004, dated 2007).

Tests used:
integrin αvβ3 = experiment: Flow cytometry, scFv binding to human tumor cell panel
Procedure: (§1) FIGS. 1A, 1B, 1C. Patient derived scFvs Bc-12 and Bc-15 recognize tumor cell integrin αvβ3 in a cation and activation dependent manner. Flow cytometric analyses in TBS with or without 1 mM Ca^2+, 1 mM Mg^2+, or 0.2 mM Mn^2+ as indicated. Binding of soluble scFv detected after incubation with anti-Flag M2 murine mAb followed by FITC-anti mouse F(ab′)2. (A) scFv binding to human melanoma cells (M21: αvβ3 plus other αv integrins) (M21-LIIb: αIIbβ3, no αv integrins) or lung adenocarcinoma cells (UCLA-P3: αv integrins, no β3 integrin). (B) scFv binding to M21 melanoma cells. (C) scFv binding to variants of MDA-MB 435 human breast cancer cells that lack (β^3−) or express αvβ3 either in a non-activated (β3WT, ParentCo) or activated form (β3D723R, Bone, Lung, and BMS metastatic cancer cells isolated from breast cancer patient blood).
(§2) Flow cytometry. scFv binding to human tumor cells was analyzed by flow cytometry, initially with cloned scFv phage and then with purified scFv protein. Per sample, 2×10^5 tumor cells were blocked with goat serum and incubated either with scFv phage (2-5×10^10) (1 h at RT) followed by mouse anti-M13 mAb (Serotec) (30 min on ice) and goat FITC-anti mouse (Pierce) (30 min on ice), or with purified scFv (1.25 to 40 μg/ml, routinely 10 to 15 μg/ml) (45 min on ice), followed by mouse anti-FLAG mAb M2 (Sigma) (30 min on ice) and goat FITC-anti mouse. Binding/washing buffer was TBS with or without divalent cations (1 mM Ca^2+, 1 mM Mg^2+, 0.2 mM Mn^2+). Alternatively, tumor cells were washed in 10 ml of plasma (prepared freshly from human blood anticoagulated with 50 nM D-Phe-D-Pro-D-arginyl chloromethyl ketone, PPACK, Felding-Habermann et al., J. Biol. Chem. 271: 5892-5900, 1996), resuspended in plasma and then incubated sequentially, without washing, with purified scFv (45 min on ice), followed by anti-FLAG M2 (30 min on ice) and FITC-anti mouse (30 min on ice). All samples were counter stained with propidium iodide (PI) and analyzed on a Becton-Dickinson FACScan, with live gate set to exclude PI positive cells.
To generate therapeutic reagents that specifically react with activated αvβ3, a phage display library of single chain antibody fragments (scFv) was exploited. This library was derived from cancer patient blood lymphocyte cDNA libraries and allowed us to test the hypothesis that the expressed immune repertoire contains antibodies that recognize integrin αvβ3, and distinguish between its activated and non-activated forms. Mao et al., Proc. Natl. Acad. Sci. U.S.A 96: 6953-6958, 1999. A subtractive panning approach was designed based on variants of MDA-MB 435 human breast cancer cells. […] Apparently, these cells are selected during metastasis, as variant cells isolated from lung and bone metastases in immune deficient mice express constitutively activated αvβ3. To establish a cell population that uniformly expresses non-activated αvβ3, MDA-MB 435 parental cells were cloned by limiting dilution, and clones tested for αvβ3 functionality. […] A cell line, MDA-MB 435 Lung-Lung, was established which expressed αvβ3 in a constitutively activated form. This variant stems from a lung metastase of an immune deficient mouse whose mammary fat pad had been injected with parental MDA-MB 435 cells. Felding-Habermann et al., Proc. Natl. Acad. Sci. U.S.A 98: 1853-1858, 2001; Rolli et al., Proc. Natl. Acad. Sci. U.S.A 100: 9482-9487, 2003. To enrich for the ability to colonize the lung from the blood stream, the Lung variant was subsequently injected intravenously, and tumor cells cultured 3 weeks later from the excised lung. Parent Combo cells were used to subtract the scFv phage library to eliminate antibodies against antigens shared by the MDA-MB 435 cell variants. […]

activated integrin αvβ3 = experiment: Flow cytometry, scFv binding to MDA-MB 435 variants and patient metastatic breast cancer cells; design: species or system human
Procedure: as §1
FIGS. 2A, 2B, 2C, 2D. Translation of scFv DNA sequence analyses. (A) Consensus amino acid sequence (SEQ ID NO: 9) of Bc-12 (SEQ ID NO: 7) and Bc-15 (SEQ ID NO: 8) (specific for activated αvβ3) compared to Bc-20 (specific for αv) (SEQ ID NO: 10). (B) scFv binding to BMS human breast cancer cells by flow cytometry, indicating loss of Bc-12 and Bc-15 binding when CDR-H3 RGD is mutated to RGE (Mut-12 and Mut-15). […] (C) cDNA sequences for scFv Bc-12 (SEQ ID NO: 1) and scFv Bc-15 (SEQ ID NO: 3). The cDNA encoding scFv Bc-12 has an ATCC accession number PTA-6303, date of deposit: Nov. 12, 2004. The cDNA encoding scFv Bc-15 has an ATCC accession number PTA-6304, date of deposit: Nov. 12, 2004. (D) cDNA sequences for scFv Mut-12 (SEQ ID NO: 5) and scFv Mut-15 (SEQ ID NO: 6). scFv Mut-12 is the RGE containing mutant version of scFv Bc-12. scFv Mut-15 is the RGE containing mutant version of scFv Bc-15.
as §2
To test this further, the effects of cation combinations on Bc-12 and Bc-15 binding were examined. […] Smith, Methods Cell Biol. 69: 247-259, 2002; Hughes et al., J. Biol. Chem. 271: 6571-6574, 1996. To confirm that scFv Bc-12 and Bc-15 selectively recognize αvβ3 in its activated form, binding of these antibodies to in vitro generated and in vivo selected variants of the MDA-MB 435 breast cancer cell model was tested. […] In contrast, Bc-12 and Bc-15 were able to bind an MDA-MB 435 variant expressing constitutively activated mutant αvβ3D723R, without exogenous stimulation with Mn^2+. […] Importantly, scFvs Bc-12 and Bc-15 recognized in vivo selected MDA-MB 435 variants from bone and lung metastases, as well as metastatic cells isolated from breast cancer patient blood samples (FIG. 1C). These cells express αvβ3 in a constitutively activated form. Felding-Habermann et al., Proc. Natl. Acad. Sci. U.S.A 98: 1853-1858, 2001; Rolli et al., Proc. Natl. Acad. Sci. U.S.A 100: 9482-9487, 2003.

B1: Bc-15: patient derived human scFv antibody against activated αvβ3 with RGD motif in CDR-H3; cDNA ATCC PTA-6304 (protein)
scFv: MAQVQLVQSGAEVKEPGSSVKVSCKASGGTFSSYAIYWVRQAPGQGLEWMGWINPDSGDTNSAQQFQGRVTMTRDTSISTAYMELSRLRSDDTAMYYCARPPRGDGPDYWGQGTLVTVSSGGGGGS[letters of about 100 residues not shown]RGLGGLVDYKDDDDK
Integrin αvβ3; 0.2 mM Mn^2+
  binding in the presence of Mn2+: greatly enhanced
Integrin αvβ3; 1 mM Mg^2+, M21 cells
  binding in the presence of Mg2+: at the same level as Ca^2+
Integrin αvβ3; Ca^2+ combined with Mn^2+, M21 cells
  effect of Ca2+ on Mn2+ enhanced binding: reduced the enhancing effect of Mn^2+
Integrin αvβ3; M21, M21-LIIb, UCLA-P3 cells, flow cytometry
  reactivity with human tumor cells that express or lack αvβ3: reacted only with cells expressing the αvβ3 heterodimer
Integrin αvβ3; M21-L cells (no αv integrins)
  binding to M21-L cells: failed to bind
Integrin αvβ3; TBS with or without divalent cations
  cation requirement of binding: showed a cation dependence
Integrin αvβ3; physiological Ca^2+ levels (1 mM)
  binding in the presence of Ca2+: measurable
Integrin αvβ3; αvβ3 expression restored by transfection
  reactivity with M21-L4 cells: did react
Activated integrin αvβ3; Mn^2+ added
  binding to MDA-MB 435 variant expressing αvβ3D723R with Mn2+: further enhanced
Activated integrin αvβ3; constitutively activated mutant, without Mn^2+
  binding to MDA-MB 435 variant expressing αvβ3D723R: able to bind
Activated integrin αvβ3; β3− variant
  binding to β3-negative MDA-MB 435 cells: failed to bind
